Measured values: PubChem BioAssay AID1508624 (National Center for Advancing Translational Sciences (NCATS), 2021)
Hit rate of the full screen: of about 48,000 compounds, about 120 (0.25%) were called active. Inconclusive results (about 4%) are left out. The call rests on the fitted dose curve; in most records, active means well fitted activation curve with a large enough effect; inconclusive means small, poorly fitted or top-dose-only effect, or another doubt; inactive means no such curve, though single readings can be large or run the other way. The list shows a part of the results.

Experiment: Primary qHTS for Identification of Small Molecule Activators of Huntingtin-Antisense Promoter Activity; further: nearly all actives have a fitted effect of over 55% in size
Conditions: HEK293 HTT-AS promoter firefly luciferase reporter, 24 h; series mostly up to 57.5 µM; activity change, positive = activation: at the top concentration
Procedure, shortened: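 Firefly luciferase signal from promoter-reporter HEK293 cells was scaled between vehicle (0%) and zero RLU (-100%). Compounds were tested at final concentrations of up to 57.5 uM over 24 h at 37 degrees C. PTC124 at 50 uM final served as control inhibitor.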

Activity change, positive = activation, inactive:
CCN(c1ccc(OC)cc1)S(=O)(=O)c1nnc(NC(=O)COc2ccc(F)cc2)s1 -34.9%
CC(C)CC(=O)NCC(c1ccc2c(c1)OCO2)N1CCN(c2ccccc2F)CC1 (stereo unspecified) -15.3%
Cc1ccccc1N(C)C(=O)c1noc2c1COc1ccccc1-2 20.9%
Cc1cccc(-c2nc(SCC(=O)NCC3CCCO3)c3c(=O)n(C)c(=O)n(C)c3n2)c1 (stereo unspecified) 5.28%
CCCN(CCc1cccs1)[C@H]1CCc2c(O)cccc2C1 -10.5%
CCCCN(C)CC(O)Cn1cc(/C=C/C(=O)c2ccc(OC)c(OC)c2)c2ccccc21 (stereo unspecified) -20.3%
CCCn1ccc2c(OCC(=O)NCc3ccc(F)cc3)cccc2c1=O -14.8%
Cc1ccc(-c2nc(S(=O)(=O)c3ccc(Cl)cc3)c(N3CCCCC3)o2)cc1 -13.5%
COc1ccc(CNC(=O)Cn2nnc(-c3ccccc3F)n2)cc1 -9.07%
CCc1cc2c(cc3c(=O)n(CC(=O)N4CCCCC4)nc(CC)n32)s1 -2.89%
CC(C)(C)C(=O)NCCCC(=O)O -6.24%
COc1ccc(Cl)cc1C(=O)Nc1ccc2oc(-c3ccc(C(C)(C)C)cc3)nc2c1 -8.16%
CCCSC1=NC2(CCN(C(=O)NC3CCCCC3)CC2)N=C1c1ccccc1 -18.2% [at 11.5 µM, percent change from vehicle, -100% = no light]
NC12CC3CC(CC(C3)C1)C2
CC(C)c1nnc(NC(=O)c2nc(SCc3ccc(F)cc3)ncc2Cl)s1 3.61%
CCCSc1ncc(Cl)c(C(=O)Nc2sc3c(c2C(=O)NCC)CCCC3)n1 -12.5%
Cc1ccc(Cl)cc1N1CCN(C(=O)c2cccn2-c2nnc(N3CCCCC3)s2)CC1 -28.5%
COc1cc(Cl)ccc1OC(=O)c1cn(-c2ccccc2OC)c(=O)c2ccccc12 -11.5%
CC1C(=O)Nc2ccc(S(=O)(=O)Nc3ccccc3Br)cc2NC1=O (stereo unspecified) -5.56%
CCC(=O)NC[C@H](Cc1ccc(OCCc2nc(-c3ccccc3)oc2C)cc1)NC(C)=CC(=O)c1ccc(C(F)(F)F)cc1 -9.39%
CC(C)CCNC(=O)c1ccc(Cn2c(SCC(=O)NC(C)C)nc3ccccc3c2=O)cc1 -16.2%
Cc1cc(NC(=O)c2ccc(-c3ccc(Br)cc3)o2)cc(-c2nc3ncccc3o2)c1O -1.62%
Cc1c(-c2ccccc2)c(=O)oc2c(CN3CCN(C)CC3)c(O)ccc12 -17.5%
Cc1ccc2nc(Cl)c3cc(C(=O)NCCCN4CCC(C)CC4)sc3c2c1 -3.86%
Cc1ccc(C)c(S(=O)(=O)c2nnn3c2nc(NCc2cccs2)c2sccc23)c1 -49.6%
COc1ccc2c(c1)c1c(c(=O)n(-c3ccccc3)c(=O)n1CC(=O)Nc1ccc(F)cc1)n2C -15.5%
